Measured values from the supplement of paper PMC4967469.
IC50 is the fitted dose that halves viability relative to control wells, and lower means more sensitive; where the fit passes the top or lowest dose, that dose stands as a limit. AUC sums up the same curve from the lowest dose to the 256-fold higher top dose: 1 means no effect, lower means more sensitive. For part of these data: A top dose marked as inferred comes from the curve model; the source does not state it. For part of these data: Drugs with an entry number were screened twice under separate entries, and the two screens often disagree.

Columns and labels:
Experiment in all cases: Viability of human cancer cell lines after 72 h of drug (GDSC screen)
[1] = compound: COc1cc2c(Nc3ccc(NC(=O)c4ccccc4)cc3)ncnc2cc1OCCCN1CCOCC1 [ZM-447439]; conditions: top dose inferred
Protocol: (§1)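 Human cancer cell lines in 384-well plates, medium with 10% serum, drug for 72 h over a 256-fold dose range (nine 2-fold or five 4-fold steps up to the top dose). Adherent lines were fixed and stained with the nucleic acid dye Syto60, suspension lines read with resazurin; signal relative to control wells, capped at 0 and 100%. One two-parameter sigmoid per drug and line, fitted in a mixed model over all curves with the slope shared within a line.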

[2] = compound: CC(=O)c1c(C)c2cnc(Nc3ccc(N4CCNCC4)cn3)nc2n(C2CCCC2)c1=O [PD-0332991]
Protocol: as §1

[3] = compound: Cn1cnc2c(F)c(Nc3ccc(Br)cc3Cl)c(C(=O)NOCCO)cc21 [AZD6244]; conditions: screen: GDSC drug entry 1062
Protocol: as §1

Cell Line | AUC [1] | IC50 [1] [µM] | AUC [2] | IC50 [2] [µM] | AUC [3] | IC50 [3] [µM]
EGI-1 (biliary tract, adherent, top dose 2 µM) | 0.871 | > 2 | 0.812 | 1.5 | 0.813 | 1.51
EHEB (lymphoid neoplasm, suspension, top dose 4 µM) | 0.899 | > 4 | 0.873 | > 4 | 0.95 | > 4
EJM (lymphoid neoplasm, semi-adherent, top dose 4 µM) | 0.981 | > 4 | 0.992 | > 4 | 0.992 | > 4
EM-2 (chronic myeloid leukaemia, suspension, top dose 4 µM) | 0.689 | 0.914 | 0.633 | 0.612 | 0.975 | > 4
EMC-BAC-1 (lung adenocarcinoma, adherent, top dose 4 µM) | 0.875 | > 4 | 0.867 | > 4 | 0.95 | > 4
EMC-BAC-2 (lung adenocarcinoma, adherent, top dose 4 µM) | 0.914 | > 4 | 0.72 | 1.2 | 0.972 | > 4
ES1 (Ewing sarcoma, adherent, top dose 4 µM) | 0.923 | > 4 | 0.513 | 0.271 | 0.985 | > 4
ES3 (Ewing sarcoma, adherent, top dose 2 µM) | 0.699 | 0.47 | 0.653 | 0.341 | 0.778 | 0.853
ES4 (Ewing sarcoma, adherent, top dose 4 µM) | 0.878 | > 4 | 0.76 | 1.61 | 0.936 | > 4
ES5 (Ewing sarcoma, adherent, top dose 4 µM) | 0.719 | 1.15 | 0.635 | 0.625 | 0.938 | > 4
ES6 (Ewing sarcoma, adherent, top dose 4 µM) | 0.981 | > 4 | 0.755 | 1.66 | 0.981 | > 4
ES7 (Ewing sarcoma, adherent, top dose 4 µM) | 0.698 | 0.913 | 0.51 | 0.267 | 0.984 | > 4
ES8 (Ewing sarcoma, adherent, top dose 4 µM) | 0.865 | 3.09 | 0.631 | 0.559 | 0.964 | > 4
ES-2 (ovary, adherent, top dose 4 µM) | 0.896 | 3.89 | 0.576 | 0.392 | 0.726 | 0.996
ESO26 (oesophagus, adherent, top dose 4 µM) | 0.945 | > 4 | 0.981 | > 4 | 0.979 | > 4
ESO51 (oesophagus, semi-adherent, top dose 4 µM) | 0.845 | > 4 | 0.853 | > 4 | 0.607 | 0.557

Cell Line | AUC [1] | IC50 [1] [µM] | AUC [2] | IC50 [2] [µM] | AUC [3] | IC50 [3] [µM]
ESS-1 (endometrium, adherent, top dose 4 µM) | 0.893 | 3.92 | 0.97 | > 4 | 0.982 | > 4
ETK-1 (biliary tract, adherent, top dose 4 µM) | 0.969 | > 4 | 0.765 | 1.65 | 0.944 | > 4
EVSA-T (breast, adherent, top dose 4 µM) | 0.901 | 3.9 | 0.941 | > 4 | 0.991 | > 4
EW-1 (Ewing sarcoma, semi-adherent, top dose 4 µM) | 0.964 | > 4 | 0.889 | 3.92 | 0.983 | > 4
EW-3 (Ewing sarcoma, adherent, top dose 4 µM) | 0.966 | > 4 | 0.805 | 2.37 | 0.966 | > 4
EW-7 (Ewing sarcoma, semi-adherent, top dose 4 µM) | 0.949 | > 4 | 0.974 | > 4 | 0.963 | > 4
EW-11 (Ewing sarcoma, adherent, top dose 4 µM) | 0.972 | > 4 | 0.772 | 2 | 0.981 | > 4
EW-13 (Ewing sarcoma, suspension, top dose 4 µM) | 0.965 | > 4 | 0.975 | > 4 | 0.98 | > 4
EW-18 (Ewing sarcoma, suspension, top dose 4 µM) | 0.86 | 3.72 | 0.946 | > 4 | 0.95 | > 4
EW-22 (Ewing sarcoma, adherent, top dose 4 µM) | 0.847 | 2.78 | 0.846 | 2.75 | 0.988 | > 4
EW-24 (Ewing sarcoma, semi-adherent, top dose 4 µM) | 0.993 | > 4 | 0.992 | > 4 | 0.991 | > 4
EoL-1-cell (haematopoietic neoplasm, suspension, top dose 4 µM) | 0.537 | 0.311 | 0.604 | 0.465 | 0.957 | > 4
FADU (head and neck, adherent, top dose 4 µM) | 0.963 | > 4 | 0.843 | 2.68 | 0.981 | > 4
FLO-1 (oesophagus, adherent, top dose 4 µM) | 0.878 | > 4 | 0.71 | 1.3 | 0.802 | 3.13
FTC-133 (thyroid, adherent, top dose 4 µM) | 0.868 | > 4 | 0.951 | > 4 | 0.853 | 3.63
FU97 (stomach, adherent, top dose 4 µM) | 0.973 | > 4 | 0.847 | 3.08 | 0.986 | > 4
